Measurements: PubChem BioAssay AID485281 (National Center for Advancing Translational Sciences (NCATS), 2010)
About 260 (0.074%) of roughly 350,000 compounds were called active. The inconclusive results got no clear call from the source; some entries with a clear call stand among them for comparison. The call rests on the fitted dose curve; in most records, active means well fitted inhibition curve with a large enough effect; inconclusive means small, poorly fitted or top-dose-only effect; inactive means no such curve, though single readings can be large or run the other way. Potencies of inconclusive entries are doubtful fits and often do not repeat.

target: Ferritin light chain (Equus caballus) (UniProt P02791); assay: qHTS Assay for Identification of Novel General Anesthetics; conditions: apoferritin/1-aminoanthracene competitive binding, fluorescence; activity change, negative = displacement: at 77.5 µM (top of the series); further: nearly all actives have a fitted effect of over 20% in size
Procedure, shortened: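 Steps: apoferritin (10 uM) was premixed with half-saturated 1-AMA in PBS, compounds were pin-transferred, plates stood 10 min at room temperature, fluorescence was read at 380/535 nm, and curves were fitted with a Hill equation.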
On the % scale 0 is the no-effect control and ±100 the full control effect; potency means the concentration at half of the fitted maximal effect; tags describe the fitted curve by direction and shape.

Chain of UniProt P02791 (P02791 whole entry, looked up): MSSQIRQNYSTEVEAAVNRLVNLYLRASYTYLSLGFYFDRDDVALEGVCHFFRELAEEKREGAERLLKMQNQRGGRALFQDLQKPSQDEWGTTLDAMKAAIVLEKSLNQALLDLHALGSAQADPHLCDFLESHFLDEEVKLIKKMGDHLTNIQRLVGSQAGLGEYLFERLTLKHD

| SMILES | activity change, negative = displacement | Potency |
| --- | --- | --- |
| O=C(O)CO | inactive: -10.5% |  |
| N#Cc1ccsc1NC(=O)CCc1ccccc1 |  | inconclusive: 31.6 µM [inhibitor, partial curve] |
| O=[N+]([O-])c1ccccc1Nc1ccc(O)cc1 |  | inconclusive: 28.2 µM [inhibitor, partial curve] |
| CC(C)OCCCNc1ncnc2c1nc1n2CCCC1 | inactive: -7.22% |  |
| O=C(CSc1ccc2ccccc2n1)Nc1ccc(N2CCOCC2)cc1 |  | inconclusive: 28.2 µM [inhibitor, partial curve] |
| CC1(O)N(Cc2ccccc2)C(=O)OC12CCCCC2 (centres undefined) |  | inconclusive: 10 µM [inhibitor, partial curve] |
| COc1cc(-c2nnc(-c3ccc(S(=O)(=O)c4ccccc4)cc3)o2)cc(OC)c1OC | inactive: -17.3% |  |
| CC(C)N(C(=O)Cc1ccccc1[N+](=O)[O-])C(C)C |  | inconclusive: 22.4 µM [inhibitor, partial curve] |
| O=C(Nc1cccc(NC(=O)c2nccc3ccccc23)c1)c1ccco1 |  | inconclusive: 11.2 µM [inhibitor, partial curve] |
| Cc1ccc(NC(=O)c2cc3c(=O)n(Cc4ccco4)ccc3nc2C)cc1C |  | inconclusive: 28.2 µM [inhibitor, single point] |
| O=C(C/C=N/OCc1c(Cl)cccc1Cl)c1ccccc1 |  | inconclusive: 44.7 µM [inhibitor, partial curve] |
| Cc1nc2sc(C(=O)N(C)c3ccccc3)c(NC(=O)c3ccccc3Cl)c2c(C)c1C |  | inconclusive: 7.08 µM [inhibitor, partial curve] |
| Cc1cc(C)n(-c2nnc(NC34CC5CC(CC(C5)C3)C4)nn2)n1 |  | inconclusive: 31.6 µM [inhibitor, partial curve] |
| CSc1ccc(C2c3c(oc4cc(C)cc(C)c4c3=O)C(=O)N2CCO)cc1 (centres undefined) |  | inconclusive: 25.1 µM [inhibitor, partial curve] |
| O=C(CCSc1ccc(Cl)cc1)NN=C1CCCCCC1 |  | inconclusive: 15.8 µM [inhibitor, partial curve] |
| Cn1c(=S)c2[nH]c(SCCN3CCCC3)nc2n(C)c1=O | inactive: 0.181% |  |
| COc1cc(OC)cc(C(=O)Nc2ccc(S(=O)(=O)N(C)C)cc2)c1 |  | inconclusive: 50.1 µM [inhibitor, single point] |
| O=C1/C(=C/c2cccc3ccccc23)CCCc2ccccc21 |  | inconclusive: 50.1 µM [inhibitor, single point] |
| Cc1nc2sc(-c3ccccc3)cc2c(=O)n1-n1cccc1 |  | inconclusive: 17.8 µM [inhibitor, partial curve] |
| [O-]/C(=C(\C(=S)Nc1cccc2ccccc12)[n+]1ccccc1)c1cccs1 |  | inconclusive: 25.1 µM [inhibitor, partial curve] |
| Cc1ccc(SCC(=O)Nc2cccc(NC(=O)c3ccco3)c2)cc1 |  | inconclusive: 39.8 µM [inhibitor, partial curve] |
| Cc1cc(C)cc(-n2c(C)nc3cc(C(=O)NCc4ccccc4Cl)ccc32)c1 |  | inconclusive: 6.31 µM [inhibitor, single point] |

| SMILES | activity change, negative = displacement | Potency |
| --- | --- | --- |
| O=C(COc1ccccc1F)OCc1cc(=O)n2nc(C3CC3)sc2n1 |  | inconclusive: 22.4 µM [inhibitor, partial curve] |
| O=C(Cn1[nH]c(=O)c2ccccc2c1=O)OCC(=O)N1CCc2ccccc2C1 |  | inconclusive: 44.7 µM [inhibitor, single point] |
| O=C(C(=O)N1CCCCCC1)c1c[nH]c2ccccc12 | inactive: -22.7% |  |
| Cc1cc(C(=O)c2cccs2)c(N)s1 |  | inconclusive: 31.6 µM [inhibitor, partial curve] |
| NNC(=O)c1ccc(COc2ccc3c(c2)CCC3)o1 |  | inconclusive: 31.6 µM [inhibitor, partial curve] |
| CCc1c(C)sc(NC(=O)c2cc(-c3cc(OC)ccc3OC)on2)c1C#N | inactive: -11.8% |  |
| COc1cccc(CNC(=O)c2ccc(NC(=O)N3CCCCc4ccccc43)cc2)c1OC |  | inconclusive: 17.8 µM [inhibitor, partial curve] |
| Cc1ccn(C(=O)c2ccc(NC(=O)CC(C)C)cc2)n1 |  | inconclusive: 39.8 µM [inhibitor, single point] |
| Cn1c(-c2cccc([N+](=O)[O-])c2)cnc1NCc1cccc([N+](=O)[O-])c1 |  | inconclusive: 35.5 µM [inhibitor, single point] |
| O=C(COC(=O)Cc1n[nH]c(=O)c2ccccc12)Nc1cccc(C(F)(F)F)c1 |  | inconclusive: 35.5 µM [inhibitor, single point] |
| CCN(CC)c1ccc(NC(=O)CCCCCN2C(=O)c3ccccc3C2=O)cc1 |  | inconclusive: 35.5 µM [inhibitor, partial curve] |
| Cc1c(F)cccc1NS(=O)(=O)c1ccc2c(c1)n(C)c(=O)c(=O)n2C | inactive: -0.0946% |  |
| Nc1nnc(/C=C/c2cccc([N+](=O)[O-])c2)s1 | inactive: -9.1% |  |
| Cc1ccc(OCc2nnc(SCc3cc(=O)[nH]c4ccccc34)o2)cc1 |  | inconclusive: 15.8 µM [inhibitor, partial curve] |
| Cc1cc(NC(=O)Cn2nc(-c3ccccc3F)ccc2=O)ccc1-n1cnnn1 |  | inconclusive: 14.1 µM [inhibitor, partial curve] |
| CCOC(=O)c1cc(-c2ccccc2)n(CCC(=O)Nc2nc3c(C)cccc3s2)c1C | inactive: -1.53% |  |
| Cn1c(=O)c2sccc2n2c(CCCC(=O)Nc3ccc(Oc4ccc(Cl)cc4)cc3)nnc12 |  | inconclusive: 50.1 µM [inhibitor, partial curve] |
| Cc1ccc(OCc2cc(C(=O)NCc3cc(F)ccc3C)no2)cn1 |  | inconclusive: 15.8 µM [inhibitor, partial curve] |
| Cn1ncc2c(Nc3ccc(-c4ccccc4)cc3)ncnc21 |  | inconclusive: 6.31 µM [inhibitor, full curve] |
| Nc1[nH]c(=S)[nH]c(=O)c1-c1ccccc1 | inactive: 2.56% |  |
| Cc1nn(C(C)C(=O)Nc2ccccc2Cl)c(=O)c2nn(-c3ccccc3)c(C)c12 (centres undefined) |  | inconclusive: 31.6 µM [inhibitor, partial curve] |
| CC(Oc1ccccc1)C(=O)N=Nc1c(O)[nH]c2ccc([N+](=O)[O-])cc12 (centres undefined) |  | inconclusive: 28.2 µM [inhibitor, partial curve] |
